Out of some 370,000 compounds screened, about 150 (0.041%) were called active. This list was built around the results that the source calls inconclusive (neither active nor inactive); the mix of calls is not that of the screen. Calls come from the whole dose curve; as a rule, active = well fitted inhibition curve with a large enough effect; inconclusive = small, poorly fitted or top-dose-only effect; inactive = flat fitted curve, though single readings scatter. No potency is given beside an inconclusive call; the fits are too rough.
Molecular target: Beta-lactamase (Escherichia coli (strain K12)) (UniProt P00811)
Sequence of UniProt P00811 (P00811 whole entry, looked up): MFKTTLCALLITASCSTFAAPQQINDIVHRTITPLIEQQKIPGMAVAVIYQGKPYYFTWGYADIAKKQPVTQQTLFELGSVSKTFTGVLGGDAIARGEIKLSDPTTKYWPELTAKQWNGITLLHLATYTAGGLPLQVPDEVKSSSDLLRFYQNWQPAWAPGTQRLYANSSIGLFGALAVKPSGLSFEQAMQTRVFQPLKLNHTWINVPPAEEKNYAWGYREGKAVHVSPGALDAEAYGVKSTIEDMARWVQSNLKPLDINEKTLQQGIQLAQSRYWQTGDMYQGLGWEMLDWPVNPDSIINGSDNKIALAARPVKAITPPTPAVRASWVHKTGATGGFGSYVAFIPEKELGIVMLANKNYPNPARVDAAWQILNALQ
Test: qHTS Inhibitors of AmpC Beta-Lactamase (assay with detergent); note: nearly all actives have a fitted effect of over 25% in size;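 for activity change, negative = inhibition: 0% = no-compound wells and -100% = no-enzyme wells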
Settings: AmpC hydrolysis of nitrocefin, absorbance 480 nm, 0.01% Triton; activity change, negative = inhibition: at 114 µM (top of the series)
Summary of the method: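 20 mM phosphate pH 7.0 + 0.01% (detergent screen) or 0.0001% Triton X-100; 5.3 nM AmpC reagent; cpd preinc 15 min RT; nitrocefin (800 uM stock) to start; A480 q20 s × 4 min; Activity was normalised to no-enzyme and no-compound control wells.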
Potency is the fitted concentration of half-maximal effect; tags give direction and shape of the fitted curve.

SMILES	Potency	activity change, negative = inhibition
S=C(N/N=C/c1ccco1)NC1CC2CCC1C2 (stereo not given)	inconclusive [inhibitor, single point]	–
CN(c1nc(-c2ccccc2)cs1)C1CCS(=O)(=O)C1 (stereo not given)	inconclusive [inhibitor, full curve, poor fit]	–
COc1ccc(C2CC(c3ccccc3OC(C)=O)=NN2C(=O)/C=C/c2ccccc2)cc1 (stereo not given)	inconclusive [inhibitor, single point]	–
CCCOc1ccc(N2C(=O)CC(SCc3nc4ccccc4[nH]3)C2=O)cc1 (stereo not given)	–	inactive: 0.939%
CN(C)c1ccc2c(c1)OC(N)=C(C#N)C2c1cccc(F)c1 (stereo not given)	–	inactive: -4.9%
CC(=O)Nc1c(S(=O)(=O)c2ccccc2)c2nc3ccccc3nc2n1Cc1ccccc1	inconclusive [inhibitor, partial curve, poor fit]	–
COc1ccc(C(=O)NCC(=O)OCc2ccccc2F)cc1	inconclusive [inhibitor, full curve, poor fit]	–
CCc1nnc(NC(=O)c2cccs2)s1	inconclusive [inhibitor, full curve, poor fit]	–
CCOC(=O)c1c(C)[nH]c(C)c1S(=O)(=O)N(C)CC(=O)NCc1ccc(F)cc1	inconclusive [inhibitor, full curve, poor fit]	–
CN(C)/C=C1/Oc2c(ccc3ccccc23)C1=O	inconclusive [inhibitor, partial curve]	–
Cc1cc(C(=O)N/N=C/c2cc(Br)c(Br)o2)n[nH]1	–	inactive: -3.07%
COc1ccc(NC(=O)C(NC(=O)c2ccc(=O)[nH]c2)c2ccccc2)cc1 (stereo not given)	inconclusive [inhibitor, partial curve, poor fit]	–
O=[N+]([O-])c1ccc(-n2nnnc2-c2ccccc2)c([N+](=O)[O-])c1	–	inactive: -8.24%
CCN(/N=C/c1ccccc1)c1cc(=O)n(C)c(=O)[nH]1	inconclusive [inhibitor, partial curve]	–
C/C(=N/OC(=O)c1ccccc1Br)c1ccc(C)cc1	–	inactive: -2.67%
O=C(Nc1cccnc1)c1c(F)cccc1F	–	inactive: -4.73%
O=C(NN=C1CCCCC1)Nc1ccccc1Cl	inconclusive [inhibitor, single point]	–
C/C=C/Cn1cccc(C(=O)Nc2ccc(OC)cc2)c1=O	inconclusive [inhibitor, partial curve, poor fit]	–
CCN(CC)CCNc1nc2c(c(=O)[nH]c(=O)n2C)n1CC(O)COc1ccc(Cl)cc1Cl (stereo not given)	inconclusive [inhibitor, partial curve, poor fit]	–
CC(=O)Nc1cccc(Nc2nc3ccccc3n3c(C)nnc23)c1	–	inactive: 21%
N#Cc1c(-c2ccco2)nc(SCC(=O)Nc2ccc(S(N)(=O)=O)cc2)[nH]c1=O	inconclusive [inhibitor, full curve, poor fit]	–
CCc1c(C)sc(NC(=O)CC#N)c1C#N	inconclusive [inhibitor, full curve, poor fit]	–

SMILES	Potency	activity change, negative = inhibition
CCN1/C(=C/c2sc(-c3ccccc3C)c[n+]2C)Sc2ccccc21	inconclusive [inhibitor, single point]	–
COc1ccc(-c2nc(NC(=O)CSc3nnc(C)s3)ns2)cc1	–	inactive: 3.34%
Cc1nn(-c2ccccc2)c(Cl)c1C1C(C#N)=C(N)OC2=C1C(=O)CCC2 (stereo not given)	inconclusive [inhibitor, full curve, poor fit]	–
CCOC(=O)/C=c1\s/c(=C\c2ccccc2OC)c(=O)n1CC(=O)N1CCOCC1	inconclusive [inhibitor, full curve, poor fit]	–
Cc1ccc(S(=O)(=O)NCCC(=O)NNC(=O)C2COc3ccccc3O2)cc1 (stereo not given)	inconclusive [inhibitor, full curve]	–
CC1CCCCN1CCNC(=O)CCc1nnc2n(Cc3ccccc3)c(=O)c3ccccc3n12 (stereo not given)	inconclusive [inhibitor, partial curve, poor fit]	–
S=c1[nH]nc(-c2ccccn2)n1/N=C/c1cccc2ccccc12	inconclusive [inhibitor, full curve, poor fit]	–
O=C(CCCn1cc([N+](=O)[O-])cn1)NC1CCCCCC1	inconclusive [inhibitor, full curve, poor fit]	–
CC1=C(C(=O)Nc2ccccc2)C2(CCCCC2)C(C(N)=O)C(=S)N1 (stereo not given)	inconclusive [inhibitor, full curve, poor fit]	–
Cc1cc(C)cc(NC(=O)CSc2nc3ncccc3[nH]2)c1	–	inactive: 5.7%
Cc1cc(C(C)(C)C)cc(C)c1COC(=O)c1cccnc1	inconclusive [inhibitor, full curve]	–
O=C(Cc1ccc(S(=O)(=O)N2CCOCC2)s1)NCC1CCCCC1	inconclusive [inhibitor, full curve, poor fit]	–
N#C/C(=C\c1ccc(OC(=O)c2ccccn2)cc1)C(N)=O	–	inactive: -3.74%
COc1cccc(CN2CCN(C3CCN(c4ccccc4F)CC3)CC2CCO)c1 (stereo not given)	–	inactive: 3.44%
Cc1cccc2cc(C(c3nnnn3CC3CCCO3)N3CCCc4ccccc43)c(=O)[nH]c12 (stereo not given)	inconclusive [inhibitor, full curve, poor fit]	–
Cc1ccc(NC(=O)CN2C(=O)S/C(=C/c3ccc(-c4cc(C(=O)O)ccc4C)o3)C2=O)cc1C	–	inactive: -0.987%
Oc1ccc(-c2nnc(SCC3CCCCC3)o2)cc1	–	inactive: -17.6%
CCOC(=O)c1sc(NC(=O)Nc2ccccc2Cl)cc1C	inconclusive [inhibitor, full curve, poor fit]	–
C[C@@H](C(=O)CC(=O)OC(C)(C)C)[C@@H](O)c1c(F)cccc1Cl	inconclusive [inhibitor, full curve, poor fit]	–
CCOc1ccc(OCCn2c(SCC(=O)O)nc3ccccc32)cc1	inconclusive [inhibitor, partial curve, poor fit]	–
CC(=O)Nc1nnc(-c2ccccn2)o1	inconclusive [inhibitor, full curve, poor fit]	–
COc1ccc(S(=O)(=O)N2CCN(c3ccccc3OC)CC2)cc1OC	–	inactive: -13.1%

SMILES	Potency	activity change, negative = inhibition
Cc1ccc(NC(=O)COc2coc(CN3CCc4ccccc43)cc2=O)c(C)c1	inconclusive [inhibitor, full curve, poor fit]	–
COc1cc2c(cc1OC)n(Cc1ccc([N+](=O)[O-])cc1)c(=O)n1nc(-c3ccccc3)nc21	–	inactive: -5.04%
CCOP(=O)(OCC)C(Nc1ccc(OC)cc1)c1ccco1 (stereo not given)	inconclusive [inhibitor, partial curve]	–
COc1ccccc1NC(=S)N(Cc1ccco1)Cc1cc2cc(C)cc(C)c2[nH]c1=O	inconclusive [inhibitor, partial curve]	–
Cc1cc(C)c(S(=O)(=O)Nc2ccccc2C(=O)N2CCCC2)c(C)c1	inconclusive [inhibitor, full curve, poor fit]	–
CC1CCN(CCCCOc2ccc(C(C)(C)C)cc2)CC1	inconclusive [inhibitor, full curve]	–
Cc1ccc(N2CCN(S(=O)(=O)c3ccc(Cl)s3)CC2C)cc1 (stereo not given)	inconclusive [inhibitor, single point]	–
CCOC(=O)c1cc(C#N)c(N2CCN(c3ccc(OC)cc3)CC2)[nH]c1=O	inconclusive [inhibitor, full curve]	–
O=C(COC(=O)c1ccccc1)NC(=O)NC1CCCC1	inconclusive [inhibitor, partial curve, poor fit]	–
O=C(NCc1ccccc1)C1CCCN(S(=O)(=O)c2ccc(Br)cc2)C1 (stereo not given)	–	inactive: 8.01%
CC(OCCN1CCCC1)(c1ccc(F)cc1)c1ccc(F)cc1	inconclusive [inhibitor, full curve, poor fit]	–
Cc1ccc(C(=O)Nc2ccc(C(=O)N/N=C/c3c[nH]c4ccccc34)cc2)cc1	inconclusive [inhibitor, full curve, poor fit]	–
Cc1cccc(-n2ncc3c(NCCCO)ncnc32)c1	inconclusive [inhibitor, full curve, poor fit]	–
CCOc1cc(CNc2ccc(N3CCN(C(C)=O)CC3)cc2)cc(Br)c1OC	inconclusive [inhibitor, full curve, poor fit]	–
CCOC(=O)c1c(-c2ccccc2)csc1NC(=O)c1nn(CC)cc1Br	inconclusive [inhibitor, single point]	–
Cc1c(C(=O)Nc2ccc3c4c(cccc24)CC3)cccc1[N+](=O)[O-]	inconclusive [inhibitor, partial curve, poor fit]	–
COc1ccc(Br)cc1CN1CCCCCCC1	inconclusive [inhibitor, single point]	–
O=C(C1CCCCC1)N1CCCC(c2nc3c(nnn3Cc3ccccc3)c(=O)[nH]2)C1 (stereo not given)	inconclusive [inhibitor, partial curve, poor fit]	–
CC1(C)CC(C(CC(=O)O)c2ccccc2)CCO1 (stereo not given)	inconclusive [inhibitor, single point]	–
CC(C)Cc1nnc(NC(=O)CCC(=O)N2CCN(S(=O)(=O)c3ccccc3)CC2)s1	inconclusive [inhibitor, full curve]	–
CCc1ccc(NS(=O)(=O)c2c(C)nc3sc(CC)nn3c2=O)cc1	inconclusive [inhibitor, partial curve, poor fit]	–

From PubChem BioAssay AID485294 (National Center for Advancing Translational Sciences (NCATS), 2010)
